{"source": "the supplement of paper PMC8728848", "assay_in_all_cases": "glycan array binding signal (z-score within array); higher = stronger binding", "conditions_in_all_cases": "glycan notation: IUPAC condensed, linker removed; mutation: E227A", "key": {"[1]": {"biological_target": "Gal(b1-4)GalNAc(b1-3)[Fuc(a1-2)]Gal(b1-4)GlcNAc", "method_in_brief": "(§1)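 Glycan array data were curated from 3228 arrays in the Consortium for Functional Glycomics database and kept only where the protein sequence was available. Glycan names were converted to IUPAC-condensed notation, and columns mapping to the same glycan were averaged. The binding signal is a within-array Z-score, averaged across arrays of the same protein sequence at different concentrations or buffers and across linkers. Negative Z-scores can be read as non-binding.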"}, "[2]": {"biological_target": "Gal(b1-4)Glc", "method_in_brief": "as §1"}, "[3]": {"biological_target": "Gal(b1-4)Glc6S", "method_in_brief": "as §1"}, "[4]": {"biological_target": "Gal(b1-4)GlcNAc", "method_in_brief": "as §1"}, "[5]": {"biological_target": "Gal(b1-4)GlcNAc(a1-6)Gal(b1-4)GlcNAc", "method_in_brief": "as §1"}, "[6]": {"biological_target": "Gal(b1-4)GlcNAc(b1-2)Man", "method_in_brief": "as §1"}, "[7]": {"biological_target": "Gal(b1-4)GlcNAc(b1-2)Man(a1-3)Man(b1-4)GlcNAc(b1-4)GlcNAc", "method_in_brief": "as §1"}, "[8]": {"biological_target": "Gal(b1-4)GlcNAc(b1-2)Man(a1-3)[Gal(b1-4)GlcNAc(b1-2)Man(a1-6)]Man(b1-4)GlcNAc(b1-4)GlcNAc", "method_in_brief": "as §1"}, "[9]": {"biological_target": "Gal(b1-4)GlcNAc(b1-2)Man(a1-3)[Gal(b1-4)GlcNAc(b1-2)Man(a1-6)]Man(b1-4)GlcNAc(b1-4)[Fuc(a1-6)]GlcNAc", "method_in_brief": "as §1"}, "[10]": {"biological_target": "Gal(b1-4)GlcNAc(b1-2)Man(a1-3)[Gal(b1-4)GlcNAc(b1-2)Man(a1-6)][Gal(b1-4)GlcNAc(b1-4)]Man(b1-4)GlcNAc(b1-4)[Fuc(a1-6)]GlcNAc", "method_in_brief": "as §1"}, "[11]": {"biological_target": "Gal(b1-4)GlcNAc(b1-2)Man(a1-3)[Gal(b1-4)GlcNAc(b1-2)Man(a1-6)][GlcNAc(b1-4)]Man(b1-4)GlcNAc(b1-4)[Fuc(a1-6)]GlcNAc", "method_in_brief": "as §1"}, "[12]": {"biological_target": "Gal(b1-4)GlcNAc(b1-2)Man(a1-3)[GlcNAc(b1-2)Man(a1-6)]Man(b1-4)GlcNAc(b1-4)GlcNAc", "method_in_brief": "as §1"}, "[13]": {"biological_target": "Gal(b1-4)GlcNAc(b1-2)Man(a1-3)[GlcNAc(b1-4)][Gal(b1-4)GlcNAc(b1-2)Man(a1-6)]Man(b1-4)GlcNAc(b1-4)GlcNAc", "method_in_brief": "as §1"}, "[14]": {"biological_target": "Gal(b1-4)GlcNAc(b1-2)Man(a1-3)[Man(a1-6)]Man(b1-4)GlcNAc(b1-4)GlcNAc", "method_in_brief": "as §1"}, "[15]": {"biological_target": "Gal(b1-4)GlcNAc(b1-2)Man(a1-6)Man(b1-4)GlcNAc(b1-4)GlcNAc", "method_in_brief": "as §1"}, "[16]": {"biological_target": "Gal(b1-4)GlcNAc(b1-2)Man(a1-6)[GlcNAc(b1-2)Man(a1-3)]Man(b1-4)GlcNAc(b1-4)GlcNAc", "method_in_brief": "as §1"}, "[17]": {"biological_target": "Gal(b1-4)GlcNAc(b1-2)Man(a1-6)[Man(a1-3)]Man(b1-4)GlcNAc(b1-4)GlcNAc", "method_in_brief": "as §1"}, "[18]": {"biological_target": "Gal(b1-4)GlcNAc(b1-2)[Gal(b1-4)GlcNAc(b1-4)]Man(a1-3)[Gal(b1-4)GlcNAc(b1-2)Man(a1-6)]Man(b1-4)GlcNAc(b1-4)GlcNAc", "method_in_brief": "as §1"}, "[19]": {"biological_target": "Gal(b1-4)GlcNAc(b1-2)[Gal(b1-4)GlcNAc(b1-4)]Man(a1-3)[Gal(b1-4)GlcNAc(b1-2)[Gal(b1-4)GlcNAc(b1-6)]Man(a1-6)]Man(b1-4)GlcNAc(b1-4)GlcNAc", "method_in_brief": "as §1"}, "[20]": {"biological_target": "Gal(b1-4)GlcNAc(b1-2)[Gal(b1-4)GlcNAc(b1-4)]Man(a1-3)[GlcNAc(b1-4)][Gal(b1-4)GlcNAc(b1-2)Man(a1-6)]Man(b1-4)GlcNAc(b1-4)GlcNAc", "method_in_brief": "as §1"}, "[21]": {"biological_target": "Gal(b1-4)GlcNAc(b1-2)[Gal(b1-4)GlcNAc(b1-4)]Man(a1-3)[GlcNAc(b1-4)][Gal(b1-4)GlcNAc(b1-2)[Gal(b1-4)GlcNAc(b1-6)]Man(a1-6)]Man(b1-4)GlcNAc(b1-4)GlcNAc", "method_in_brief": "as §1"}, "[22]": {"biological_target": "Gal(b1-4)GlcNAc(b1-2)[Gal(b1-4)GlcNAc(b1-6)]Man(a1-6)[Gal(b1-4)GlcNAc(b1-2)Man(a1-3)]Man(b1-4)GlcNAc(b1-4)GlcNAc", "method_in_brief": "as §1"}, "[23]": {"biological_target": "Gal(b1-4)GlcNAc(b1-2)[Gal(b1-4)GlcNAc(b1-6)]Man(a1-6)[Gal(b1-4)GlcNAc(b1-2)Man(a1-3)]Man(b1-4)GlcNAc(b1-4)[Fuc(a1-6)]GlcNAc", "method_in_brief": "as §1"}, "[24]": {"biological_target": "Gal(b1-4)GlcNAc(b1-2)[Gal(b1-4)GlcNAc(b1-6)]Man(a1-6)[GlcNAc(b1-4)][Gal(b1-4)GlcNAc(b1-2)Man(a1-3)]Man(b1-4)GlcNAc(b1-4)GlcNAc", "method_in_brief": "as §1"}, "[25]": {"biological_target": "Gal(b1-4)GlcNAc(b1-2)[Gal(b1-4)GlcNAc(b1-6)]Man(a1-6)[GlcNAc(b1-4)][Gal(b1-4)GlcNAc(b1-2)[Gal(b1-4)GlcNAc(b1-4)]Man(a1-3)]Man(b1-4)GlcNAc(b1-4)[Fuc(a1-6)]GlcNAc", "method_in_brief": "as §1"}, "[26]": {"biological_target": "Gal(b1-4)GlcNAc(b1-3)Gal(b1-3)GalNAc", "method_in_brief": "as §1"}, "[27]": {"biological_target": "Gal(b1-4)GlcNAc(b1-3)Gal(b1-3)GlcNAc", "method_in_brief": "as §1"}, "[28]": {"biological_target": "Gal(b1-4)GlcNAc(b1-3)Gal(b1-4)Glc", "method_in_brief": "as §1"}, "[29]": {"biological_target": "Gal(b1-4)GlcNAc(b1-3)Gal(b1-4)GlcNAc", "method_in_brief": "as §1"}, "[30]": {"biological_target": "Gal(b1-4)GlcNAc(b1-3)Gal(b1-4)GlcNAc(b1-2)Man(a1-3)[Gal(b1-4)GlcNAc(b1-3)Gal(b1-4)GlcNAc(b1-2)Man(a1-6)]Man(b1-4)GlcNAc(b1-4)GlcNAc", "method_in_brief": "as §1"}}, "note": "The list shows a part of the results."}
{"binder": "Epa1-NP-mutant-E227A (Candida glabrata), Q6VBJ0 (protein) MILNPALFLNKCVCIYTTLILLLLTNGGYATSSNDISLASKDPTTFPLGCSPDITTPKKGLSMELYSYDFRKKGSYPCWDAAYLDPNYPRTGYKSHRLLAKVDGVTGNINFYYHATKGCTPQLGHLPASYNYPKPLTMTNFTMLLYGYFRPKVTGFHTFTISADDLLFVNFGAGNAFDCCRRDSSADHFGNYQAYAIWGSKTAKDELTVHLDAGVYYPIRLFYNNRAYDGALSFTFKTESNENTVSDFSEYFFSLDDTEEGCPGLISYDSSCASVKTSKIIGIDYHTETPNENLVPITKTIYHLGIPCTGTTTTPLCGSGFYDPLANKCVTINTSSTSSVTKTTSHTTSKEVSFHSSISSQKTLIPKSIPSPYGPIKSQSIPTEMETSSEISSSEYAFSDVISTPSHSPYTKKHSSLNSSSYTSTVIHSLTSYSISQGIFSTSLSEQNITSKSSTDKFSTATSMSNNITQSSIIISQFSTNNENYTTTSMHTSSDKISTETLNNSISTTTSILFSNSSTILKNNTTIISSDKDTHYHPVNPTIVCSTNKTEIICASITQPSISNSNNHWSSSVLKFNSTTVRSTLPSSAGSNETSINVPFSSSTESNTSTSSTSTSNSKMVRSTLPSSAGSNETSISVPFSSSTESNTSTSSTSTSNSKMVRSTLPSSAGSNETSINVPFSSSTESNTSTSSTSTSNSKTVRSTPFSSAGIIMTSLSQRNNKSASSYASSNSKCYNTADSCRKVHSTPSYLLTSSYTSEGVDYDCSLVSTKLKINDTNCVNNKHTTKSCLKTSVTTTIPTLEIKTARKSSSNTIGLHSYPTSSPNKSISSAPIIGYISSFKTIKTASPSYQTSDLTTITTITSLNNPGSTAVENTHESNDKSRKTSSNDISSKHSVIKETKDAVESSNKSHQTNTLKCSSIIIASSSHNSYESLGGTTLTLTLSKVYSPQNNDTLPFLEISEVNPSRTVLPESSKMMQYLTSTEERNKTARNTIATNIVSISTFHFEGEGNAIRMGYTQLLLMLIGIIVMNIGT", "values": [{"measurement": "glycan array binding signal (z-score)", "setting": "[1]", "value": 0.217}, {"measurement": "glycan array binding signal (z-score)", "setting": "[2]", "value": -0.13}, {"measurement": "glycan array binding signal (z-score)", "setting": "[3]", "value": 0.839}, {"measurement": "glycan array binding signal (z-score)", "setting": "[4]", "value": -0.058}, {"measurement": "glycan array binding signal (z-score)", "setting": "[5]", "value": 0.914}, {"measurement": "glycan array binding signal (z-score)", "setting": "[6]", "value": -0.194}, {"measurement": "glycan array binding signal (z-score)", "setting": "[7]", "value": -0.186}, {"measurement": "glycan array binding signal (z-score)", "setting": "[8]", "value": -0.202}, {"measurement": "glycan array binding signal (z-score)", "setting": "[9]", "value": -0.197}, {"measurement": "glycan array binding signal (z-score)", "setting": "[10]", "value": -0.227}, {"measurement": "glycan array binding signal (z-score)", "setting": "[11]", "value": -0.222}, {"measurement": "glycan array binding signal (z-score)", "setting": "[12]", "value": -0.232}, {"measurement": "glycan array binding signal (z-score)", "setting": "[13]", "value": -0.197}, {"measurement": "glycan array binding signal (z-score)", "setting": "[14]", "value": -0.196}, {"measurement": "glycan array binding signal (z-score)", "setting": "[15]", "value": -0.168}, {"measurement": "glycan array binding signal (z-score)", "setting": "[16]", "value": -0.216}, {"measurement": "glycan array binding signal (z-score)", "setting": "[17]", "value": -0.172}, {"measurement": "glycan array binding signal (z-score)", "setting": "[18]", "value": -0.06}, {"measurement": "glycan array binding signal (z-score)", "setting": "[19]", "value": 0.007}, {"measurement": "glycan array binding signal (z-score)", "setting": "[20]", "value": -0.192}, {"measurement": "glycan array binding signal (z-score)", "setting": "[21]", "value": 0.117}, {"measurement": "glycan array binding signal (z-score)", "setting": "[22]", "value": -0.144}, {"measurement": "glycan array binding signal (z-score)", "setting": "[23]", "value": -0.036}, {"measurement": "glycan array binding signal (z-score)", "setting": "[24]", "value": -0.194}, {"measurement": "glycan array binding signal (z-score)", "setting": "[25]", "value": 0.052}, {"measurement": "glycan array binding signal (z-score)", "setting": "[26]", "value": -0.214}, {"measurement": "glycan array binding signal (z-score)", "setting": "[27]", "value": -0.204}, {"measurement": "glycan array binding signal (z-score)", "setting": "[28]", "value": -0.09}, {"measurement": "glycan array binding signal (z-score)", "setting": "[29]", "value": 0.012}, {"measurement": "glycan array binding signal (z-score)", "setting": "[30]", "value": 0.151}]}
